Data on 67 sequences can be found in the supplement of paper PMC5655136.

These are enrichments in a pooled selection; single values are uncertain.
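Note: shRNA barcodes quantified by deep sequencing of PCR amplicons from cellular DNA, counts expressed as percent of each subpool, ratio averaged over two biological duplicates.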

The subject of the first data set is NB7. Kind of data set: fold depletion of shRNA, plasmid library share / infected cells without Dox share (9 days) (ratio); higher = more depleted after infection (more toxic, leaky expression from a Tet-inducible vector; NB7 is a neuroblastoma line without caspase-8). The following applies: shRNA pool: CD95L ORF + CD95L 3'UTR + Venus libraries.
In the case of ACCGCATCGAGCTGAAGGGCA, the “fold depletion of shRNA” value came out at 1.28.

Take CAAGCTGGAGTACAACTACAA: the “fold depletion of shRNA” value came to 1.82.

With TGCCACCTACGGCAAGCTGAC, the “fold depletion of shRNA” value worked out at 0.839.

On to GCTGGCAGAACTCCGAGAGTC, for which the “fold depletion of shRNA” value is 5.99.

For the sequence AGGGAGAAGCATGAAAAAGCA, the “fold depletion of shRNA” value is 1.02.

Turning to AAATGAAAACATGTAATAAAA, the “fold depletion of shRNA” value came out at 0.488.

Regarding AACTCTGGGCTGCCATGTGAA, the “fold depletion of shRNA” value was 3.24.

Turning to GACTGTCTTTCAGATACATGG, the “fold depletion of shRNA” value was 1.05.

Consider CAAGGCCAACTTCAAGATCCG, for which the “fold depletion of shRNA” value worked out at 1.31.

Regarding AAATCATTGATTGTCAGCTAC, the “fold depletion of shRNA” value came to 0.699.

CAAGCTGCCCGTGCCCTGGCC: the “fold depletion of shRNA” value is 0.537.

CCTACGGCAAGCTGACCCTGA: the “fold depletion of shRNA” value turned out to be 1.4.

For CTTTGTTACAGGCACCGAGAA, the “fold depletion of shRNA” value was 2.88.

AGATGTTTTGGGGACTCATTT: the “fold depletion of shRNA” value came to 0.994.

Take GGACGGCGACGTAAACGGCCA: the “fold depletion of shRNA” value is 0.415.

TGAGACCACAGGGTTCAAAAT: the “fold depletion of shRNA” value is 22.1.

CCGCCACAACATCGAGGACGG: the “fold depletion of shRNA” value was 1.47.

On to ATGGTTGTGACCTGAGGATTT, for which the “fold depletion of shRNA” value is 1.14.

For CATCTTAGTGCCTGAGAGTAT, the “fold depletion of shRNA” value was found to be 2.06.

For TAATATAATAAATATTTATGT, the “fold depletion of shRNA” value is 1.3.

Regarding CGTAAACGGCCACAAGTTCAG, the “fold depletion of shRNA” value is 0.912.

Turning to ATGCCACCTACGGCAAGCTGA, the “fold depletion of shRNA” value was found to be 3.07.

In the case of TGGAGGGGAAGATGATGAGCT, the “fold depletion of shRNA” value was 4.19.

For the sequence AACCACTACCTGAGCTACCAG, the “fold depletion of shRNA” value is 2.62.

Regarding TGTTCACCGGGGTGGTGCCCA, the “fold depletion of shRNA” value is 1.73.

With GCCTTGTGATCAATGAAACTG, the “fold depletion of shRNA” value amounted to 3.03.

On to CTGAAAAAAAGGAGCTGAGGA, for which the “fold depletion of shRNA” value turned out to be 1.44.

For AGCTCGCCGACCACTACCAGC, the “fold depletion of shRNA” value came to 1.35.

Regarding TCAAGGCCAACTTCAAGATCC, the “fold depletion of shRNA” value amounted to 1.16.

Consider CCCTGAAGCTGATCTGCACCA, for which the “fold depletion of shRNA” value was found to be 0.879.

Take TGGTCAAGATTTTGAATGCTT: the “fold depletion of shRNA” value was determined as 7.53.

CTGTTCACCGGGGTGGTGCCC: the “fold depletion of shRNA” value was 0.99.

In the case of AAACGGCCACAAGTTCAGCGT, the “fold depletion of shRNA” value was 0.927.

For GAGTGAAGTATAAGAAGGGTG, the “fold depletion of shRNA” value amounted to 0.521.

As to GCATAATAAGCTAAAGAGGCT, the “fold depletion of shRNA” value is 3.48.

In the case of TGAAGTATAAGAAGGGTGGCC, the “fold depletion of shRNA” value came out at 2.28.

On to GCTACCTGGGGGCAGTGTTCA, for which the “fold depletion of shRNA” value stood at 1.1.

As for CAAAGTATACTTCCGGGGTCA, the “fold depletion of shRNA” value came out at 1.77.

For the sequence TCCTCAACTCACCTAATGTTT, the “fold depletion of shRNA” value is 1.03.

Consider AGAGAGGGAACCACAGCACAG, for which the “fold depletion of shRNA” value worked out at 0.506.

Regarding TATTGTGAAGTACATATTAGG, the “fold depletion of shRNA” value is 1.05.

As for AAGTAAGAAGACATGAACCAA, the “fold depletion of shRNA” value worked out at 1.57.

For the sequence TCTGTAGCTCCTCAACTCACC, the “fold depletion of shRNA” value turned out to be 2.6.

With GCCAACTTCAAGATCCGCCAC, the “fold depletion of shRNA” value came out at 1.33.

In the case of TTGAAAAGGACACCTTTTAAC, the “fold depletion of shRNA” value came out at 0.681.

For TGTCCTGCTTTCTGGAGTGAA, the “fold depletion of shRNA” value came out at 0.39.

Regarding CTGGGGATGTTTCAGCTCTTC, the “fold depletion of shRNA” value amounted to 1.81.

Consider GGCCCCGTGCTGCTGCCCGAC, for which the “fold depletion of shRNA” value came out at 0.827.

For the sequence TGGTGAACCGCATCGAGCTGA, the “fold depletion of shRNA” value stood at 1.38.

Take GTGGGCCTTGCTACCTCAAGG: the “fold depletion of shRNA” value worked out at 1.04.

As to ACTAAAGAGAGAATGTAGATA, the “fold depletion of shRNA” value turned out to be 0.677.

Turning to GGTGAAACTAACAGATAAGCA, the “fold depletion of shRNA” value was found to be 1.6.

Consider TACTTTGTATATTCCAAAGTA, for which the “fold depletion of shRNA” value stood at 0.401.

As for ACGGCAACTACAAGACCCGCG, the “fold depletion of shRNA” value came to 1.4.

Take AAATATGGGTTGCATTTGGTC: the “fold depletion of shRNA” value amounted to 1.36.

With CCCTGAAGAAGAGAGGGAACC, the “fold depletion of shRNA” value was 0.861.

With CACAAGTTCAGCGTGTCCGGC, the “fold depletion of shRNA” value was 1.59.

With ATGTCTGTAGCTCCTCAACTC, the “fold depletion of shRNA” value came to 1.94.

On to AATCTCAGACGTTTTTCGGCT, for which the “fold depletion of shRNA” value stood at 10.

For the sequence TTCAAGTCCGCCATGCCCGAA, the “fold depletion of shRNA” value worked out at 0.657.

As to AATCAACTCTAATAGTGCTTA, the “fold depletion of shRNA” value was found to be 0.79.

With ACCCCCATCGGCGACGGCCCC, the “fold depletion of shRNA” value was found to be 0.648.

For TCGGTGAAACTAACAGATAAG, the “fold depletion of shRNA” value was 0.655.

Staying with this data set, now noted: shRNA pool: CD95 ORF + CD95 3'UTR + Venus libraries.
Take ACCGCATCGAGCTGAAGGGCA: the “fold depletion of shRNA” value was 0.84.

As for CAAGCTGGAGTACAACTACAA, the “fold depletion of shRNA” value worked out at 1.12.

As for AAGACACAGCAGAACAGAAAG, the “fold depletion of shRNA” value amounted to 1.14.

Regarding CTCCATTTTTGCCTTGGTGCT, the “fold depletion of shRNA” value was 6.59.

CTTCATCAAGAGTAAATGCAG: the “fold depletion of shRNA” value is 1.41.

Take TGCCACCTACGGCAAGCTGAC: the “fold depletion of shRNA” value was 1.62.

Turning to CATCAAAAGCATTTTGAGCAG, the “fold depletion of shRNA” value was 1.68.
